The other results are listed elsewhere or left out. At the low end of the ranking the order means little.
These sequences were tested against T1, GST-Rok (full length) (UniProt O34857) (assay: protein binding microarray). Settings: Rok is a gene silencer of Bacillus subtilis; high values mean tight binding; most listed sequences are background and not binding sites; double strand, one strand shown.
T1 sequence: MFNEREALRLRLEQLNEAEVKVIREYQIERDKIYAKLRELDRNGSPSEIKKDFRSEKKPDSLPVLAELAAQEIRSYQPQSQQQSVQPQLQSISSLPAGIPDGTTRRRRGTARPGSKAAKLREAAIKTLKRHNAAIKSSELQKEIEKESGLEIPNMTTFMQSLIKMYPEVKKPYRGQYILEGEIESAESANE
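Note: rank score from −0.5 (least bound) to 0.5 (best bound).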

Row | Sequence | binding signal
1 | ACGGGCCG | -0.373 E-score
2 | ATGTGGAC | 0.109 E-score
3 | CATACACA | 0.135 E-score
4 | AAAGATGG | -0.0262 E-score
5 | GAATGCTA | 0.134 E-score
6 | CCTAAAAA | 0.0837 E-score
7 | AGCCTTAA | -0.038 E-score
8 | AGCAAACG | -0.0198 E-score
9 | CCGTTAGC | -0.185 E-score
10 | GACAATCC | -0.00593 E-score
11 | GATGTAAA | 0.159 E-score
12 | GATGGCAC | -0.108 E-score
13 | ACATACCA | 0.278 E-score
14 | GAGGAAAA | -0.155 E-score
15 | AATCAGAC | 0.141 E-score
16 | CCTATGCG | -0.164 E-score
17 | ACTTAAGC | 0.0123 E-score
18 | ACTCAGCA | -0.0531 E-score
19 | GTTAGTCA | 0.166 E-score
20 | ACATCCCG | -0.148 E-score
21 | CCAACTTA | 0.0981 E-score
22 | CTTCATTC | -0.0758 E-score
23 | AGGGATGG | -0.127 E-score
24 | CAGCAAGC | -0.114 E-score
25 | CACGATCA | -0.0973 E-score

Row | Sequence | binding signal
26 | GGCATAAC | -0.0658 E-score
27 | CCCATCGA | -0.0661 E-score
28 | GATTGCGC | -0.11 E-score
29 | CAGAAGAA | 0.0939 E-score
30 | CATCTCAG | -0.0582 E-score
31 | CGCATTAC | 0.132 E-score
32 | GGTGGCGA | -0.11 E-score
33 | GGCACTTA | -0.128 E-score
34 | GCCTGAAC | -0.267 E-score
35 | AGGCCTAT | -0.0946 E-score
36 | CAATTGAC | 0.0882 E-score
37 | ATATCGTG | 0.177 E-score
38 | CATGGGAA | -0.139 E-score
39 | ACCCCCAC | -0.357 E-score
40 | AGACAACG | -0.0674 E-score
41 | ACAGGGGA | -0.28 E-score
42 | ATCCCTAG | -0.0349 E-score
43 | TGGCAGAA | -0.00675 E-score
44 | ATGGCGGC | -0.327 E-score
45 | CGGGGCCC | -0.367 E-score
46 | ACGCCTCG | -0.227 E-score
47 | ACTGGAGC | -0.126 E-score
48 | CGAGTACC | -0.148 E-score
49 | CCGTCGCA | -0.223 E-score
50 | AGAGCCAA | -0.183 E-score

Row | Sequence | binding signal
51 | CACAGGAC | -0.122 E-score
52 | CTCCCGGC | -0.294 E-score
53 | ATAGATGG | 0.159 E-score
54 | CCCGCGGA | -0.214 E-score
55 | ACACTAGA | 0.197 E-score
56 | CAAGAGTG | 0.107 E-score
57 | GCAGTCGC | -0.196 E-score
58 | GCCCGTAC | -0.26 E-score
59 | AGGGCCAG | -0.296 E-score
60 | ACACTGCC | -0.244 E-score
61 | ATAACATC | 0.083 E-score
62 | TGCATACA | -0.0253 E-score
63 | CATCCCTA | 0.0782 E-score
64 | CTCCATAC | 0.166 E-score
65 | GCGGAAGC | -0.0301 E-score
66 | GCCCGAGC | -0.27 E-score
67 | TAGCCAGA | -0.215 E-score
68 | GCAGCGAA | -0.0124 E-score
69 | GCGGTCGA | -0.134 E-score
70 | GTCTTACA | -0.104 E-score
71 | CACGTCGC | -0.149 E-score
72 | ATATTCAT | 0.319 E-score
73 | GAATCAAA | 0.15 E-score
74 | AACACGGT | -0.0677 E-score
75 | CGGTCGGC | -0.288 E-score

Row | Sequence | binding signal
76 | AGTGTTCA | -0.102 E-score
77 | GAGAGAAA | 0.0897 E-score
78 | ATAAGGCC | -0.00866 E-score
79 | CGGCATAC | -0.0136 E-score
80 | GACCCCCC | -0.471 E-score
81 | AGTGATAG | 0.377 E-score
82 | ACGCGGGA | -0.212 E-score
83 | ACGTGAAG | 0.0636 E-score
84 | AACCGTGA | 0.0598 E-score
85 | AGCCAGGG | -0.218 E-score
86 | AGATAGAT | 0.386 E-score
87 | CAATTACA | 0.189 E-score
88 | GACTTGAA | 0.144 E-score
89 | ACGACAGG | -0.0817 E-score
90 | AGCTCCAT | 0.0419 E-score
91 | ATCATATG | 0.226 E-score
92 | GCTGCAGA | 0.0247 E-score
93 | CGATATAA | 0.357 E-score
94 | TAAGATGA | 0.13 E-score
95 | TCTCAACA | 0.123 E-score
96 | ACGGTCTC | -0.186 E-score
97 | GCCGTACC | -0.204 E-score
98 | TAGGCGCA | -0.0478 E-score
99 | AAACAAAA | -0.042 E-score
100 | AGTACAAT | 0.217 E-score

Row | Sequence | binding signal
101 | AACGTAAT | 0.0894 E-score
102 | CGATTTGA | -0.0184 E-score
103 | GTTGGGCA | -0.0884 E-score
104 | CGTCTACA | 0.151 E-score
105 | CATTGTGA | 0.0884 E-score
106 | GAGGGGGA | -0.355 E-score
107 | GAACAGTA | 0.264 E-score
108 | ACTGGACA | 0.0236 E-score
109 | GAACTGGA | -0.103 E-score
110 | AAAAGCGT | -0.296 E-score
111 | CTTTTGTC | -0.121 E-score
112 | ATGTTCTA | 0.269 E-score
113 | AGAATTAA | 0.184 E-score
114 | ACAGGCCA | -0.114 E-score
115 | AGTTCGTA | 0.23 E-score
116 | ATGATACA | 0.28 E-score
117 | CCCGTCGA | -0.315 E-score
118 | AGTGAGCG | -0.0932 E-score
119 | GAGTTAAA | 0.12 E-score
120 | AGACCGAA | -0.255 E-score
121 | AACTGACT | -0.0534 E-score
122 | TCTCCGAA | 0.0924 E-score
123 | CAGTTATC | 0.139 E-score
124 | ACCGGGAC | -0.156 E-score
125 | AAACGAGC | -0.22 E-score

Row | Sequence | binding signal
126 | CGTCTTAC | -0.209 E-score
127 | AATCGACC | 0.155 E-score
128 | AGGGTGGC | -0.384 E-score
129 | CCTGTAGA | 0.0279 E-score
130 | AGGGTATA | 0.0982 E-score
131 | ACGTTTTC | 0.19 E-score
132 | CGTGTCAC | 0.0368 E-score
133 | ACTACCTG | 0.222 E-score
134 | AGCCGATG | -0.0522 E-score
135 | AGGTTAGG | -0.108 E-score
136 | GTCGGGAA | -0.326 E-score
137 | CAACACAG | -0.0484 E-score
138 | CCTAGACC | -0.289 E-score
139 | AACGATAT | 0.272 E-score
140 | CTTACTTC | 0.06 E-score
141 | AGGGTGCA | -0.131 E-score
142 | ACTCAGCC | -0.076 E-score
143 | ACCCGTCA | -0.275 E-score
144 | CAAGATCA | 0.0932 E-score
145 | AGCTGCGC | -0.217 E-score
146 | TCTTGTCA | -0.133 E-score
147 | CCGTATCA | -0.0296 E-score
148 | AACATGGC | -0.112 E-score
149 | CAGGCTGG | -0.14 E-score
150 | AATGAATA | 0.174 E-score

Row | Sequence | binding signal
151 | CCTGAAAA | -0.19 E-score
152 | GCGATGGA | 0.0109 E-score
153 | AAGAATCA | 0.133 E-score
154 | AAAGACCT | -0.067 E-score
155 | CTCAGGGA | -0.16 E-score
156 | CTCCACAC | 0.0329 E-score
157 | ATGGGGTA | -0.0198 E-score
158 | CGTCGAGA | -0.0959 E-score
159 | CCAGGACC | -0.246 E-score
160 | GTCCCTTA | -0.163 E-score
161 | ATATACAG | 0.282 E-score
162 | CTGCATGC | -0.13 E-score
163 | ACCGTTCC | -0.00401 E-score
164 | GCGGGCGA | -0.388 E-score
165 | CATTCATC | 0.0485 E-score
166 | GTGGGGGA | -0.325 E-score
167 | GCCTATAC | 0.135 E-score
168 | TATGGAAA | 0.119 E-score
169 | CCGACCTA | 0.0265 E-score
170 | AGGGTTGA | -0.227 E-score
171 | GAGTCCCA | -0.212 E-score
172 | AGATGTAC | 0.315 E-score
